Results as given in PubChem BioAssay AID1768 (National Center for Advancing Translational Sciences (NCATS), 2009).
In all, about 270,000 compounds went through this assay and about 620 (0.23%) were called active. The inconclusive results got no clear call from the source; some entries with a clear call stand among them for comparison. Calls follow the shape of the dose curve; as a rule, active = well fitted inhibition curve with a large enough effect in the polarisation, with a control signal flat (not every such curve was filed as active); inconclusive = small, poorly fitted or top-dose-only effect, or effect the other way, or a change in a side signal; inactive = no such curve, though single readings can be large or run the other way; the % refers to the polarisation. Potencies of inconclusive entries are doubtful fits and often do not repeat. “Side channel” marks fits to a control or component signal instead of the main read-out.

biological target: Menin (Homo sapiens) (UniProt O00255); assay: qHTS Assay for Inhibitors Targeting the Menin-MLL Interaction in MLL Related Leukemias: Competition With Texas Red Labeled MLL-derived Mutant Peptide; conditions: fluorescence polarization; series mostly up to 61.6 µM
Potency is read from the fitted curve at half-maximal effect; tags tell the direction and shape of the fitted curve or compound fluorescence and quenching.

Sequence of UniProt O00255 (O00255 whole entry, looked up): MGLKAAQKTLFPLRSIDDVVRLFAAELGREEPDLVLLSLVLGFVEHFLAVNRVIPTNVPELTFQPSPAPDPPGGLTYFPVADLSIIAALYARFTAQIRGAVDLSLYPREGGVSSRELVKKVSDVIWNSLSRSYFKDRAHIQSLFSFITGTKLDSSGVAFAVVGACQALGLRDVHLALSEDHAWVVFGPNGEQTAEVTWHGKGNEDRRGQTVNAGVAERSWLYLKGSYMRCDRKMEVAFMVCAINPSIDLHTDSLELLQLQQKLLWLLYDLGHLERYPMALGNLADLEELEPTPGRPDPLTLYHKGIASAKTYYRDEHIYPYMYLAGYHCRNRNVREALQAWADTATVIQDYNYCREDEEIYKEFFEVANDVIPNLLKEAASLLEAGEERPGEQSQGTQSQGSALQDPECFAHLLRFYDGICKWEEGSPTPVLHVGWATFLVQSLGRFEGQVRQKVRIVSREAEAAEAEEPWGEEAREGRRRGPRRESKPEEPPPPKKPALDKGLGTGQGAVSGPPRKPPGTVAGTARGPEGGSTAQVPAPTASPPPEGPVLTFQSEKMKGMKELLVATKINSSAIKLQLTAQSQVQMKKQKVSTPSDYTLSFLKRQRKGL

Row | SMILES | Potency
1 | C=CCOc1ccc(C(=O)c2ccccc2)c(OCC(=O)NC2(C#N)CCCC2)c1 | inconclusive: 6.31 µM [inhibitor, partial curve]
2 | CCCCCC(=O)O[C@]1(C(C)=O)CC[C@H]2[C@@H]3CCC4=CC(=O)CC[C@]4(C)[C@H]3CC[C@@]21C | inconclusive: 11.2 µM [fluorescent, side channel, partial curve]
3 | COc1cc(NC(c2ccccc2)c2ccccc2)cc(OC)c1OC | inconclusive: 14.1 µM [fluorescent, side channel, partial curve]
4 | C=CCn1c(O)c(C2=c3ccccc3=NC2=O)s/c1=N/c1nccs1 | inconclusive: 14.1 µM [quencher, side channel, partial curve]
5 | COc1ccc(NC(=O)NNC(=O)COc2ccc3cc(Br)ccc3c2)cc1 | inconclusive: 22.4 µM [inhibitor, single point]
6 | CCOCCCNC(=O)/C(C#N)=C/c1ccc([N+](=O)[O-])o1 | inactive
7 | COc1cc2cc(C(=O)N/N=C/c3cccc(OC)c3OC)[nH]c2cc1OC | inconclusive: 28.2 µM [quencher, side channel, single point]
8 | CN(Cc1ccccc1)C(=O)C1CCN(S(=O)(=O)c2cc([N+](=O)[O-])ccc2Cl)CC1 | inconclusive: 17.8 µM [inhibitor, partial curve]
9 | COc1ccc(OC)c(C(=O)Cn2c3[n+](c4ccc(C(F)(F)F)cc42)CCCCC3)c1 | inconclusive: 39.8 µM [inhibitor, single point]
10 | Cc1cc(=O)[nH]c(/N=C(\N)Nc2cccc3ccccc23)n1 | inconclusive: 28.2 µM [fluorescent, side channel, partial curve]
11 | CCCCC(=O)NC(c1cccs1)c1cc(Cl)c2cccnc2c1O (stereo unspecified) | inconclusive: 14.1 µM [quencher, side channel, partial curve]
12 | COc1ccc(C2=NN(c3nc4ccccc4s3)C(=O)C2)cc1 | inconclusive: 12.6 µM [quencher, side channel, partial curve]
13 | CC1=CSC2=NC(=O)/C(=C\c3cccn3-c3ccccc3)C(=N)N12 | inconclusive: 8.91 µM [quencher, side channel, partial curve]
14 | COc1ccccc1NC(=O)c1oc2ccc(C)cc2c1C | inconclusive: 20 µM [quencher, side channel, single point]
15 | CCN(CC1COc2ccccc2O1)C(=S)Nc1ccc(F)cc1 (stereo unspecified) | inconclusive: 39.8 µM [quencher, side channel, single point]
16 | Cc1ccc(N2CCN(S(=O)(=O)N(C)C)CC2)cc1Cl | inconclusive: 39.8 µM [inhibitor, single point]
17 | COc1ccc(C(=O)N2CCC3(CCCN(Cc4ccc(C#N)cc4)C3)CC2)cc1 | inconclusive: 0.631 µM [inhibitor, full curve, poor fit]
18 | COc1ccc(C2=Nn3c(nnc3-c3ccco3)SC2)cc1OC | inconclusive: 8.91 µM [inhibitor, single point]

Row | SMILES | Potency
19 | CNC(=S)N/N=C1\C(=O)c2cccc3cccc1c23 | inconclusive: 10 µM [quencher, side channel, partial curve]
20 | N#CC1=C(N)OC2=C(C(=O)CCC2)C12CCC1(CC2)OCCO1 | inconclusive: 10 µM [inhibitor, partial curve]
21 | Cc1[nH]c2ccccc2c1-c1nc2ccccc2[nH]1 | inconclusive: 17.8 µM [quencher, side channel, partial curve]
22 | O=C(CC(=O)Nc1cc(Cl)ccc1Cl)Nc1cc(Cl)ccc1Cl | inconclusive: 15.8 µM [quencher, side channel, partial curve]
23 | COc1cc(OC)c2c(-c3ccccc3)cc(=O)oc2c1C(CCN1CCCCC1)c1ccc(N(C)C)cc1 (stereo unspecified) | inconclusive: 6.31 µM [quencher, side channel, single point]
24 | CN(C)c1ccc(/C=C/c2nc3ccccc3c(=O)[nH]2)cc1 | inconclusive: 12.6 µM [quencher, side channel, partial curve]
25 | COc1cc(-c2[nH]ncc2CN2CCN(Cc3cccs3)CC2)cc(OC)c1OC | inconclusive: 22.4 µM [fluorescent, side channel, single point]
26 | O=C(O)c1cccc(NN=C2c3ccccc3-c3ccccc32)c1 | inconclusive: 22.4 µM [quencher, side channel, partial curve]
27 | CCCCC(CC)CNC(=O)C(=O)C1C(=O)Nc2ccccc21 (stereo unspecified) | inconclusive: 39.8 µM [quencher, side channel, single point]
28 | Clc1ccc2c(c1)C(N1CCNCC1)Cc1ccccc1S2 (stereo unspecified) | inactive
29 | CC(C)(C)c1ccc(C(=O)Nc2ccc3c(c2)C(=O)NC3=O)cc1 | inconclusive: 11.2 µM [inhibitor, partial curve]
30 | CCn1nc(C)c(NC(=O)/C=C/c2ccc(OC)c(COc3ccc(Cl)cc3Br)c2)c1C | inactive
31 | O=S(=O)(Nc1cccc(Cl)c1)c1ccc(-n2cccn2)cc1 | inconclusive: 20 µM [quencher, side channel, partial curve]
32 | Cc1scc(C(=O)N/N=C/c2ccco2)c1C | inconclusive: 8.91 µM [inhibitor, single point]
33 | O=C(Nc1cccc(-c2nnc(-c3ccco3)o2)c1)C(c1ccccc1)c1ccccc1 | inconclusive: 39.8 µM [inhibitor, single point]
34 | COc1ccc(OC)c(NC(=O)CSc2sc3c(O)cc(=O)[nH]c3c2C#N)c1 | inconclusive: 20 µM [quencher, partial curve]
35 | CCc1cc2c(=O)c(-c3cnn(-c4ccccc4)c3)c(C(F)(F)F)oc2c(CN(C)C)c1O | inconclusive: 39.8 µM [inhibitor, single point]
36 | Cc1ccc(NC(=O)C2=CC(c3cccs3)=NS(=O)(=O)N2C)cc1 | inconclusive: 25.1 µM [quencher, side channel, single point]
